Measurements taken from PubChem BioAssay (NCATS).
Inconclusive means that the source gave no clear call. Such entries were picked first, then a sample of the others. Where the call is inconclusive, the potency comes from a doubtful curve fit. Active and inactive are the calls of the source. Calls follow the shape of the dose curve; as a rule, active = well fitted inhibition curve with a large enough effect; inconclusive = small, poorly fitted or top-dose-only effect; inactive = no such curve, though single readings can be large or run the other way.
Potency is read from the fitted curve at half-maximal effect; tags tell the direction and shape of the fitted curve.

Test system: not listed separately
Test: qHTS to identify inhibitors of the type 1 interferon - major histocompatibility complex class I in skeletal muscle: primary screen against the NCATS Mechanism Interrogation Plate v5.0 (MIPE) Libary (AID 1347411); also: nearly all actives have a fitted effect of over 65% in size;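 as to activity change, negative = inhibition: plate controls were vehicle for no effect and reference inhibitor for full effect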
Conditions: iHSKM cells + IFN-b, HiBiT-tagged MHC-I luminescence, 24 h; activity change, negative = inhibition: at 45.8 µM (top of the series)
Summary of the method: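 Luminescence from HiBiT-tagged endogenous HLA-B*08:01 served as the MHC class I read-out. CRISPR-engineered C25cl48 human myoblasts received 4.0 ng/ml IFN-beta plus compound for 24 hrs, with an 11-point, 1:3 series topping at 46 uM final.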
For O=C(O)c1nn(Cc2ccc(Cl)cc2Cl)c2ccccc12, the “activity change, negative = inhibition” value was inactive: 7.35%.
For CCN1CCN(C(=O)Cc2ccc(Nc3ncc(F)c(Nc4ccc(C(=O)Nc5ccccc5Cl)cc4)n3)cc2)CC1, the Potency was inconclusive: 11.7 µM [inhibitor, full curve, poor fit].
For COC(=O)[C@@H](N)CCCN=C(N)N[N+](=O)[O-], the “activity change, negative = inhibition” value was inactive: -7.35%.
With COc1ccc(N(C(=O)Oc2c(C)cccc2C)c2ccnc(Nc3ccc(N4CCN(C)CC4)cc3)n2)c(OC)c1 the “activity change, negative = inhibition” value was inactive: -18.9%.
In the case of C=C1C[C@@H]2[C@H](CC[C@]3(C)C(=O)CC[C@@H]23)[C@@]2(C)C=CC(=O)C=C12, the Potency is reported as inconclusive: 16.5 µM [inhibitor, partial curve, poor fit].
For CC(C)CC(N(C)C)C1(c2ccc(Cl)cc2)CCC1 (stereo not given), the Potency was inconclusive: 33 µM [inhibitor, single point].
With CC(=O)N1N=C(c2ccc(N)cc2)c2cc3c(cc2C[C@H]1C)OCO3 the Potency was inconclusive: 37 µM [inhibitor, single point].
For O=C(O)C(=O)c1cn(Cc2ccccc2)c2ccc(-c3ccc(OC(F)(F)F)cc3)cc12, the “activity change, negative = inhibition” value was inactive: -10.1%.
For C[C@]12CC[C@H](O)CC1=CC[C@@H]1[C@@H]2CC[C@]2(C)C(=O)CC[C@@H]12, the “activity change, negative = inhibition” value was inactive: -12%.
In the case of CCOC(=O)c1c(C(C#N)=CN)c2ccc(Cl)c(Cl)c2n1C, the Potency is reported as inconclusive: 18.6 µM [inhibitor, partial curve, poor fit].
With CN1CCN(c2ccc([N+](=O)[O-])c3no[n+]([O-])c23)CC1 the Potency was inconclusive: 29.4 µM [inhibitor, single point].
For C/C=C(/C)C(=O)O[C@H]1C(C)=C2[C@H]([C@@H]1OC(=O)CCCCCCC)[C@@](C)(OC(C)=O)C[C@H](OC(=O)CCC)[C@@]1(O)[C@H]2OC(=O)[C@@]1(C)O, the Potency was active: 0.0165 µM.
For CCCC[N+]1(C)[C@H]2CC(OC(=O)[C@H](CO)c3ccccc3)C[C@H]1[C@H]1O[C@H]12 (stereo not given in full), the “activity change, negative = inhibition” value was inactive: 0.736%.
In the case of N=c1c2c(-c3ccccc3)c(-c3ccccc3)n(Cc3ccccc3)c2ncn1C1CCC(O)CC1 (stereo not given), the Potency is reported as inconclusive: 52.3 µM [inhibitor, single point].
For N[C@@H](Cc1ccc(N(CCCl)CCCl)cc1)C(=O)O, the “activity change, negative = inhibition” value was inactive: -37.5%.
For O=c1[nH]c2ccc(Cl)cc2c(N[C@@H]2CN3CCC2CC3)c1-c1nc2ccccc2[nH]1, the Potency was active: 4.66 µM.
With CC(C)[C@]12O[C@H]1[C@@H]1O[C@]13[C@]1(O[C@H]1C[C@H]1C4=C(CC[C@@]13C)C(=O)OC4)[C@@H]2O the Potency was active: 0.0829 µM.
With CN(C)[C@@H]1C(=O)C(C(N)=O)=C(O)[C@@]2(O)C(=O)C3=C(O)c4c(O)cccc4[C@@](C)(O)[C@H]3C[C@@H]12 the “activity change, negative = inhibition” value was inactive: -19.9%.
In the case of C[C@]12CC[C@@H]3[C@@H](CCC4=CC(=O)CC[C@@H]43)[C@@H]1CC[C@@H]2OC(=O)CCc1ccccc1, the “activity change, negative = inhibition” value is reported as inactive: 0.252%.

Molecular target: Protein phosphatase 1D (Homo sapiens) (UniProt O15297)
Sequence of UniProt O15297 (O15297 whole entry, looked up): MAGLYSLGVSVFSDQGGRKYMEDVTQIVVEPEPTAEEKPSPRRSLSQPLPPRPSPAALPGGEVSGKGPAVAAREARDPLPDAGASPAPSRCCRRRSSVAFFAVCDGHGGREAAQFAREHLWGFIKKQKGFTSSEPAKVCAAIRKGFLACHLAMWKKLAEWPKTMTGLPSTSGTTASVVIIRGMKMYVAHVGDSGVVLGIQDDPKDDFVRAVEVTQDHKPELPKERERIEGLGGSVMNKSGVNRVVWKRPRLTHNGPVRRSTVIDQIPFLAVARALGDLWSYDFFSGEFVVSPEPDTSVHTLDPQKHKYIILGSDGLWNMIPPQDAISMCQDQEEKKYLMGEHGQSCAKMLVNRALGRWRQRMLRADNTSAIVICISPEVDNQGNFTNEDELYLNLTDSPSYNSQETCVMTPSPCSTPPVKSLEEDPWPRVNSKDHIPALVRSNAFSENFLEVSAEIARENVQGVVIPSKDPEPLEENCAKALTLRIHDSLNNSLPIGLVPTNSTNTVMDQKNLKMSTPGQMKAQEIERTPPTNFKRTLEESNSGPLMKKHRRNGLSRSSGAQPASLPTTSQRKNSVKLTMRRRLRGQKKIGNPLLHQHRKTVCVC
Test: RapidFire Mass Spectrometry qHTS Assay for Modulators of WT P53-Induced Phosphatase 1 (WIP1) (AID 1347424);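 also: amount of dephosphorylated VEPPL-S-QETFS peptide product formed by WIP1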;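 as to activity change, negative = inhibition: plate controls were DMSO wells for no effect and GSK830371 inhibitor control at 10 µM for full effect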
Conditions: WIP1 dephosphorylation of phosphopeptide, RapidFire MS; series mostly up to 63 µM; activity change, negative = inhibition: at the top concentration
Summary of the method: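 10 nM WIP1 preincubated with compounds 1 hr at room temperature in pH 7.5 Tris buffer with 30 mM MgCl2, 1 mM TCEP; 2 uM VEPPL-pS-QETFS phosphopeptide for 5 min, formic acid quench; dephosphorylated product quantified by RapidFire MS against labelled standard.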
In the case of O=C(O)c1nn(Cc2ccc(Cl)cc2Cl)c2ccccc12, the Potency is reported as inconclusive: 28.2 µM [inhibitor, single point].
In the case of O=C(N[C@@H]1N=C(c2ccccc2F)c2cccc3c2N(CC3)C1=O)c1cc2ccccc2[nH]1, the Potency is reported as inconclusive: 8.91 µM [inhibitor, full curve, poor fit].
With Oc1ccc([C@H]2CNCc3c2ccc(O)c3O)cc1O the Potency was inconclusive: 44.7 µM [inhibitor, single point].
In the case of CN(C)CCc1c[nH]c2ccc(O)cc12, the “activity change, negative = inhibition” value is reported as inactive: -3.05% [at 128 µM].
In the case of ClC1=C(Cl)[C@]2(Cl)[C@@H]3[C@@H]4C[C@@H]([C@H]5O[C@@H]45)[C@@H]3[C@@]1(Cl)C2(Cl)Cl, the Potency is reported as inconclusive: 100 µM [inhibitor, single point].
For CN(C)CCc1ccc(O)cc1, the Potency was inconclusive: 25.1 µM [inhibitor, partial curve, poor fit].
With O=C(N[C@H]1N=C(c2ccccc2F)c2cccc3c2N(CC3)C1=O)c1cc2ccccc2[nH]1 the Potency was inconclusive: 1.12 µM [inhibitor, full curve].
In the case of O=C(O)c1ccc(=O)[nH]c1, the “activity change, negative = inhibition” value is reported as inactive: 10.3%.
For CN1CCc2cc(Cl)c(O)cc2[C@H]2c3ccccc3CC[C@@H]21, the “activity change, negative = inhibition” value was inactive: 5.29%.
With CC(C)NC(C)C the “activity change, negative = inhibition” value was inactive: 13.2%.
For CC(CCc1ccccc1)NC(C)C(O)c1ccc(O)cc1 (stereo not given), the Potency was inconclusive: 35.5 µM [inhibitor, partial curve, poor fit].
For CC1(C)CC/C(=C/c2ccc(Cl)cc2)C1(O)Cn1cncn1 (stereo not given), the “activity change, negative = inhibition” value was inactive: 38% [at 128 µM].
For CCOC(=O)c1cncn1C(C)c1ccccc1 (stereo not given), the “activity change, negative = inhibition” value was inactive: 6.59%.
With COc1ccc2c(C(=O)c3ccc(Cl)cc3)c(C)n(CC(=O)O)c2c1 the Potency was inconclusive: 44.7 µM [inhibitor, single point].
For COc1ccc2[nH]cc(CCN(C(C)C)C(C)C)c2c1, the “activity change, negative = inhibition” value was inactive: -11.1% [at 128 µM].
With CN(C)[C@@H]1C(=O)C(C(N)=O)=C(O)[C@@]2(O)C(=O)C3=C(O)c4c(O)cccc4[C@@](C)(O)[C@H]3C[C@@H]12 the Potency was inconclusive: 6.31 µM [inhibitor, full curve].
